The whole screen tested about 310,000 compounds, of which about 14,000 (4.5%) showed an effect of 50% or more. Effects have a minus sign here. The list shows a part of the results.
biological target: human ether-à-go-go-related gene (hERG) potassium channel (human, UniProt Q12809); experiment: primary screen, population patch clamp on CHO cells stably expressing hERG
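Further: peak tail current of the secondary pulse compared with the same well before compound.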

human ether-à-go-go-related gene (hERG) potassium channel, sequence (Q12809 whole entry, looked up): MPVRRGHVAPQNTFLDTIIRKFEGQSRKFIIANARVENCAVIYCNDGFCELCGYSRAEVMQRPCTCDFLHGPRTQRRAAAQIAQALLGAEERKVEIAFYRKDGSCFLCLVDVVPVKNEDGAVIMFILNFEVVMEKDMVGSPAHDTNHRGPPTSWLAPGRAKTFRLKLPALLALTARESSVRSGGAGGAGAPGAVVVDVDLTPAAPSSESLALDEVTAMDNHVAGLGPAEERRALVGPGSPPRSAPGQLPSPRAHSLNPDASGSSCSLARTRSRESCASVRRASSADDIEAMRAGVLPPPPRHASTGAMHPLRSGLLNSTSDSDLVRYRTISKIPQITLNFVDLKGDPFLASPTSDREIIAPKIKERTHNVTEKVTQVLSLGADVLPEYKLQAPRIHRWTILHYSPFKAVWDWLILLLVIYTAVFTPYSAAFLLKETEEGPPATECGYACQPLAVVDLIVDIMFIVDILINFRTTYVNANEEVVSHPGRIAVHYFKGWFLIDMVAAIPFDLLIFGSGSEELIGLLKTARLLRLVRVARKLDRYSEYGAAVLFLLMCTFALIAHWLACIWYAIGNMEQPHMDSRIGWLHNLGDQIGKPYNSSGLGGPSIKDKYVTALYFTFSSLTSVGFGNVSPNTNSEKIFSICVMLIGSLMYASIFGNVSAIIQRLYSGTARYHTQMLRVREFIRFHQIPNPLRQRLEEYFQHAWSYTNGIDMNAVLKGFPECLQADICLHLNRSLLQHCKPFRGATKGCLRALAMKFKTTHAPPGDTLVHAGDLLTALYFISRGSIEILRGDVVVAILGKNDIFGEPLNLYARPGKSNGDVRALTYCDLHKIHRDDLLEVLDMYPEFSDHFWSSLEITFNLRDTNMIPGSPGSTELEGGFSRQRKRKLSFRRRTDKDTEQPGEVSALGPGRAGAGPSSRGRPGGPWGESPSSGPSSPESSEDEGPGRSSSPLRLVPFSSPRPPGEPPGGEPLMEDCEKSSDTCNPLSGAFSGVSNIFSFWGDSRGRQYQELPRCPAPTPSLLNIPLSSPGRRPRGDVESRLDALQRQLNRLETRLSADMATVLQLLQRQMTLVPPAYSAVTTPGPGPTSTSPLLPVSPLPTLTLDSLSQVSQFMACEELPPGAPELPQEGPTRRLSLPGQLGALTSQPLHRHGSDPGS

| SMILES | hERG current change (%, negative = inhibition) at 10uM |
| --- | --- |
| COC(=O)N/N=C/c1cc(OC)c(O)c([N+](=O)[O-])c1 | 4.64% |
| CCCOc1ccc(C(=O)Nc2ccc(Cl)cn2)cc1 | 5.35% |
| CCC[C@@H](OS(N)(=O)=O)[C@@H](Cc1ccccc1)C(=O)OCC | -9% |
| CCOC(=O)C(Cc1ccccc1)C(=O)NCc1cccnc1 (centres unmarked) | 1.18% |
| COc1ccc(/C=C/C(=O)N2CCN(C)CC2)cc1S(=O)(=O)N1CCCCC1 | 7.36% |
| COc1ccc(-c2nc3nc(SC)nn3cc2C)cc1F | -13.4% |
| COc1ccccc1N(CC(=O)Nc1cc(C)on1)S(=O)(=O)c1cccc(C(F)(F)F)c1 | -5.55% |
| O=C(N/N=C/C=C/c1ccccc1)c1n[nH]c2c1CCC2 | 9.22% |
| O=C(NC1CCN(C(=O)c2cccs2)CC1)c1ccccc1 | -19.3% |
| CCOC(=O)CSC1=N/C(=C\c2cccnc2)C(=O)N1c1ccc(OC)cc1 | -7.14% |
| CC1CC(C)CN(C(=O)C(C)N(C)CC(=O)Nc2ccccc2Cl)C1 (centres unmarked) | 9.15% |
| CCC(C)c1ccc(S(=O)(=O)N2CCN(C(=O)COc3ccc4c(C)cc(=O)oc4c3)CC2)cc1 (centres unmarked) | -6.43% |
| CCOC(=O)c1c(C)nc2c(c(SC)nn2-c2ccccc2)c1N | 17.9% |
| Clc1ccc(-n2nnc(-c3ncc[nH]3)n2)cc1Cl | -0.372% |
| OC1(c2ccccc2F)CCN(Cc2nnnn2CCc2ccccc2)CC1 | 30.9% |
| N#Cc1cc2c(nc1SCc1cccnc1)CCC2 | -10.7% |
| COc1ccc(S(=O)(=O)NC(C)C(=O)Nc2ccccc2F)cc1 (centres unmarked) | -9.5% |
| COc1ccc(Cl)cc1NS(=O)(=O)c1cccc2cccnc12 | 32.2% |
| O=C(c1noc2c1CCc1ccccc1-2)N1CCOCC1 | 3.24% |

| SMILES | hERG current change (%, negative = inhibition) at 10uM |
| --- | --- |
| Cc1ccccc1C(=O)NC(=S)N(C)C1CCCCC1 | 21.2% |
| O=[N+]([O-])c1cc(/C=N/O)ccc1SCc1ccccc1 | 11.6% |
| Nc1nc(COC(=O)CCC(=O)c2ccc(Cl)cc2)nc(Nc2ccccc2)n1 | 6.39% |
| CCC(C)C1NC(=S)N(C2CCCCC2)C1=O (centres unmarked) | 6.18% |
| CCC(=O)c1ccc(OCC(O)Cn2nc(C)cc2C)cc1 (centres unmarked) | -7.44% |
| NS(=O)(=O)c1ccc(NC(=O)c2ccc(COc3ccccc3)o2)cc1 | 19.4% |
| COc1ccc2[nH]c(=O)c(CN(Cc3ccccc3)C(=S)NCC3CCCO3)cc2c1 (centres unmarked) | 11.8% |
| COc1ccc(C(=O)CC2(C(=O)O)CCCCC2)cc1 | 9.45% |
| O=C(OCc1ccc(Br)cc1F)c1cc2ccccc2oc1=O | -1.96% |
| COc1ccccc1C(=O)Nc1cccc(C(=O)c2ccccc2)c1 | -33.5% |
| Cc1sc2ncnc(SCC(=O)N3CCCC3=O)c2c1C | 2.84% |
| Cc1ccc(CNC(=O)CSc2nnc3c(n2)[nH]c2ccc(F)cc23)cc1 | 13.1% |
| CCOc1ccc(OCCC(=O)OCC(=O)N2CCN(S(=O)(=O)c3ccc(Cl)cc3)CC2)cc1 | -38.9% |
| COc1ccc2cc(OCC(=O)NNC(=O)Nc3ccc(F)cc3)ccc2c1 | 17.3% |
| COc1cc(-c2noc(CCCC(=O)NCc3ccccc3)n2)cc(OC)c1OC | 3.99% |
| CCc1ccc(N(CC(=O)Nc2ccccc2C(=O)N2CCCC2)S(C)(=O)=O)cc1 | -10.6% |
| CCOC(=O)C1=C(C)n2c(s/c(=C/c3cccc([N+](=O)[O-])c3)c2=O)=NC1c1ccc(O)c(OC)c1 (centres unmarked) | -10.7% |
| COc1cc(-n2c(=O)c3ccccc3n(CC(=O)c3ccc(F)cc3)c2=O)cc(OC)c1OC | 21% |
| CCOCCCNc1ncc2c(n1)CC(c1ccc(C)cc1)CC2=O (centres unmarked) | 10.2% |

| SMILES | hERG current change (%, negative = inhibition) at 10uM |
| --- | --- |
| COCCNC(=O)c1cccc(OC2CCN(Cc3ccccc3C)CC2)c1 | 6.34% |
| Cc1cc(C)n2nc(SCC(=O)N3CCN(c4ccc(F)cc4)CC3)nc2n1 | -33% |
| Oc1c(C(c2ccccc2)N2CCc3ccccc3C2)sc2ncnn12 (centres unmarked) | 5.98% |
| O=C(NCCCN1CCN(c2ccccc2F)CC1)Nc1ccccc1[N+](=O)[O-] | -72.1% |
| Cc1cc(Cl)ccc1OCC(=O)NNC(=O)C1CCCO1 (centres unmarked) | 14.6% |
| CC(NC(=O)Cc1cccs1)c1ccc2c(c1)OCO2 (centres unmarked) | -1% |
| CN(C(=O)COC(=O)c1ccc(C(C)(C)C)cc1)C1CCS(=O)(=O)C1 (centres unmarked) | -22.7% |
| O=C(Cn1nnc2ccccc21)OCC(=O)c1ccc(Cl)c(Cl)c1 | 1.31% |
| CC1CCN(CCCNC(=O)C2CCN(S(=O)(=O)N3CCCCC3)CC2)CC1 | -2.08% |
| CCOC(=O)c1c(N)c2cc([N+](=O)[O-])ccc2n1C | 18.1% |
| O=C(CCOc1ccccc1)Nc1ccnn1C1CCN(CCc2ccccc2)CC1 | -65.1% |
| CCOc1ccc(N/C(=N/c2nc(C)cc(C)n2)NC(C)=O)cc1 | -12.2% |
| Cc1cccc(C)c1N(CC(=O)N1CCN(c2ccccc2F)CC1)S(C)(=O)=O | -0.334% |
| COc1cccc(C(=O)C2CCCN(C(=O)CCc3scnc3C)C2)c1 (centres unmarked) | -12.7% |
| O=C(NCc1ccco1)Nc1cccs1 | 6.01% |
| O=C(C1CC1)N1N=C(c2ccc(Cl)cc2)CC1(O)C(F)(F)F (centres unmarked) | -0.113% |
| CN(CC(=O)Nc1cccc(F)c1)C(=O)Cn1cnc2c1c(=O)n(C)c(=O)n2C | -4.34% |
| Cc1ccc(S(=O)(=O)Nc2cccc(-c3ccc4nnc(C)n4n3)c2)s1 | -1.27% |

Reference: paper PMC4336329 (PLoS ONE, 2015)
